Measurements published in publication PMC6919601, “Identification of Plasmodium dipeptidyl aminopeptidase allosteric inhibitors by high throughput screening” (PLoS ONE, 2019).
Screen size: about 110,000 compounds; about 230 (0.21%) showed an effect of 50% or more. The list shows a part of the results.

target: DPAP1 (Plasmodium falciparum, UniProt Q8IIJ9); assay: primary screen, percent inhibition; read by cleavage of a fluorogenic dipeptide substrate; higher = more effect of the substance; set-up: species or system P. falciparum D10 trophozoite lysates; single well
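Further: 30 min substrate incubation versus DMSO and 10 µM JCP410 controls.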

Chain of DPAP1 (Q8IIJ9 whole entry, looked up): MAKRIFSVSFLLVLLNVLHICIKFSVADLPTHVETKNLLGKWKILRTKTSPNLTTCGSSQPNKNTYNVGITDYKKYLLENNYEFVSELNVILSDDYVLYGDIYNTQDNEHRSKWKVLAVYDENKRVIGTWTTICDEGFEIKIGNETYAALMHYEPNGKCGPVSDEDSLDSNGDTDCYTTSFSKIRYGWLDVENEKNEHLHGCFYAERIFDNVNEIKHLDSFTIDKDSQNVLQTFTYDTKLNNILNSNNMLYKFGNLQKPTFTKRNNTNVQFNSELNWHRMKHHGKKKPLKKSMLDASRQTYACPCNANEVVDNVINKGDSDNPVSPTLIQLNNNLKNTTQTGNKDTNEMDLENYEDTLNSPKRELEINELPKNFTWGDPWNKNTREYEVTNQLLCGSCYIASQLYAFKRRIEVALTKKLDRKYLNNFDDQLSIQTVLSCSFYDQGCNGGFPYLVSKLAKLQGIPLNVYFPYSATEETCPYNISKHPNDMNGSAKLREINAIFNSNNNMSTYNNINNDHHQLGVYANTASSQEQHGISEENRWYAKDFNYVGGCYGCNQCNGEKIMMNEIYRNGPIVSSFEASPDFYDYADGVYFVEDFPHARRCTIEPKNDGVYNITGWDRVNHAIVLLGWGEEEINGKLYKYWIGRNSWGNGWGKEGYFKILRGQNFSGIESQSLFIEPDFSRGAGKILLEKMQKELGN

Row | SMILES | % Inhibition @ 10 uM [%]
1 | COc1ccc(C(=O)Nc2ccccc2C(=O)NCc2ccc(Cl)cc2)cc1 | -3.65
2 | N#C[C@H](Cc1ccc(O)cc1)NC(=O)[C@H](CC1CCCCC1)NC(=O)OCc1ccccc1 | -1.41
3 | Cc1ccccc1-c1nc(Cn2c(=O)cc(-c3ccccc3)c3c(C)nn(C)c32)c(C)o1 | 1.47
4 | CCOc1nc(C)ccc1-c1noc(-c2cccc(OC)c2)n1 | -1.33
5 | O=[N+]([O-])c1ccc(S(=O)(=O)N2CCN(c3ccc(F)cc3)CC2)cc1 | 2.22
6 | O=C(O)c1ccc2c(c1)C(=O)N(c1ccccn1)C2=O | 1.64
7 | Cc1cc(C)c(-c2c(O)nc3c(c2O)C(=O)CC(C)(C)C3)c(C)c1 | -1.06
8 | Cc1ccc(S(=O)(=O)NCC23CC4CC(CC(C4)C2)C3)cc1 | -0.712
9 | CCOC(=O)c1cnc(SCC(=O)Nc2sc(-c3ccccc3)cc2C(=O)OCC)nc1N | 11.6
10 | O=C(Nc1ccccc1)Nc1ccc(F)cc1 | -5.57
11 | CC1=C(C(=O)OCCc2ccccc2)C(c2ccc(C)s2)NC(=O)N1 (stereo not shown) | 2.94
12 | CC(C)Cn1c(=O)c2cc3c(=O)n(CC(C)C)c(=O)c3c(C(=O)c3ccc(Cl)cc3)c2c1=O | -3.41
13 | COc1ccc(/C=C/C(=O)c2c(O)cc(C)oc2=O)cc1 | -4.01
14 | COC1C(O)C2CC1C1C(=O)N(c3ccccc3O)C(=O)C21 (stereo not shown) | -2.78
15 | O=C(O)C1CC=CCC1C(=O)Nc1nc2ccc(Cl)cc2s1 (stereo not shown) | 1.39
16 | CCCCOC(=O)c1nc2ncc([N+](=O)[O-])cn2n1 | 0.215
17 | O=C1C2(c3ccccc3)CN3CC1(c1ccccc1)CN(C2)C3c1ccco1 (stereo not shown) | 0.248
18 | Cc1ccc(-n2nc(C)c3c(C(=O)NCCc4ccco4)cc(C)nc32)cc1 | -1.3
19 | CCOc1ccc(CCNC(=O)c2[nH]c(C)c(C(C)=O)c2CC)cc1OCC | -4.96
20 | COC(=O)c1cc(-c2ccc(Cl)cc2)nc2ccc(Br)cc12 | 3.85
21 | COc1ccc(C(=O)CCN2CCCC(C)C2)cc1 (stereo not shown) | 1.19
22 | COc1cccc(-c2nc(CS(=O)(=O)CC(=O)NCCCSC3CCCCC3)c(C)o2)c1 | -0.138
23 | CN1CCN(C(=O)CNS(=O)(=O)c2ccccc2)CC1 | -6.62
24 | C=CCN1C(=O)S/C(=C/c2cccn2-c2cccc(C(=O)O)c2)C1=O | 0.83
25 | Cc1cc(C)n(-c2ccccc2)c(=O)n1 | 0.0345

Row | SMILES | % Inhibition @ 10 uM [%]
26 | C/N=C1/S/C(=C/c2ccc(-c3cccc(Cl)c3C)o2)C(=O)N1C | -4.24
27 | Nc1nc(-c2ccc(Cl)cc2)nn1S(=O)(=O)c1ccc(Cl)cc1 | 4.22
28 | N#CCNC(=O)[C@@H](Cc1ccc(F)cc1)NC(=O)OCc1ccccc1 | -10.2
29 | O=C(NCc1cccnc1)c1cccc2c1C(=O)N(Cc1cccnc1)C2 | -4.14
30 | Cc1onc(-c2ccccc2)c1C(=O)Nc1ccccc1NC(=O)c1c(-c2ccccc2)noc1C | -2.94
31 | c1cncc(-c2nnc(-c3cccnc3)nn2)c1 | -1.11
32 | Cc1cc(N2CCOCC2)n2nc(C)c(-c3ccc(Cl)cc3)c2n1 | -0.256
33 | O=C(NCc1ccccc1Cl)c1oc(=O)c2ccccc2c1-c1ccccc1 | 3.53
34 | Cn1cc([N+](=O)[O-])c(C(=O)NC2CCCCC2)n1 | -1.8
35 | O=C(O)CC1Sc2ccccc2NC1=O (stereo not shown) | -3.77
36 | Cc1ccc(S(=O)(=O)N2CCN(c3cccc(Cl)c3)CC2)cc1 | 2.4
37 | COc1ccc(C2c3sc(O)nc3SC3C4CC(C5C(=O)N(C(C)C(=O)O)C(=O)C45)C23)cc1 (stereo not shown) | -3.52
38 | Cc1cc(Cl)ccc1OC(C)C(=O)Nc1cc(Cl)ccc1C(=O)O (stereo not shown) | -5.3
39 | CCN(CC)CC(=O)Nc1cc(N(C)C)nc2ccccc12 | 3.44
40 | CC1(C)CC(=O)C2=C(C1)OC(N)=C(C#N)C21C(=O)N(CO)c2ccccc21 (stereo not shown) | -4.03
41 | Cc1ccc(CNC(=O)C(C)n2sc3ccccc3c2=O)cc1 (stereo not shown) | -0.856
42 | O=C1CSC(c2ccccc2)N1c1ccc([N+](=O)[O-])cc1 (stereo not shown) | 4.68
43 | CCOC(=O)c1ccc(Nc2ncnc3[nH]cnc23)cc1 | 6.83
44 | CS(=O)(=O)c1nc(S(=O)(=O)c2ccc(Cl)cc2)c(NCCCc2ccccc2)s1 | -2.25
45 | COc1cccc(OC)c1C(=O)Nc1ccc2ccccc2c1 | 1.08
46 | CNCc1ccccc1Sc1ccc(O)cc1 | -1.91
47 | CCOc1ccccc1N(CC(=O)NCc1ccccc1Cl)S(C)(=O)=O | -3.42
48 | Cc1ccc(NC(=O)c2cccc(Cl)c2)c(C)c1 | -0.482
49 | CC1(C)CC2=NC3=C(C(=O)CC(C)(C)C3)C(c3ccccc3Cl)C2=C(O)C1 (stereo not shown) | -2.54
50 | CC(=O)Nc1ccc(CN2CCN(c3ccc([N+](=O)[O-])cc3)CC2)cc1 | 5.42

Row | SMILES | % Inhibition @ 10 uM [%]
51 | CCOC(=O)C1CCN(S(=O)(=O)c2c(C)cc(C)cc2C)CC1 | -4.4
52 | CCn1cnc2c(=O)oc3ccccc3c21 | -1.14
53 | CC(C)(OC(=O)c1ccccc1)C1Cc2cc3ccc(=O)oc3cc2O1 (stereo not shown) | 0.467
54 | CC1(C)CCC(=O)N(c2ccccc2)C1=O | -4.49
55 | CCN(CC)CCCOc1ccccc1F | -8.37
56 | O=C(CCCn1sc2ccccc2c1=O)NCCCN1CCOCC1 | -3.07
57 | CC(=O)c1c(O)nc(C)c2c1CCCC2 | 0.135
58 | Cc1cc(C(F)(F)F)nc2sc(C(=O)c3ccc4c(c3)OCO4)c(N)c12 | 10.9
59 | COc1ccc(N2C(=O)C3C(C2=O)C2C=CC3C23CC3)cc1 (stereo not shown) | 2.38
60 | CCOC(=O)N1CCN(C(=O)C2c3ccccc3C(=O)N(C)C2c2ccc(OC)cc2)CC1 (stereo not shown) | -0.363
61 | COC(=O)c1cc(S(=O)(=O)N2CCN(C(c3ccc(F)cc3)c3ccc(F)cc3)CC2)cn1C | 1.44
62 | COC(=O)c1c(NC(=O)c2ccccc2OC)sc2c1CCC(C)C2 (stereo not shown) | -2.09
63 | Cc1ccccc1C(=O)Nc1cccc(NC(=O)c2nc[nH]n2)c1 | -0.0555
64 | COc1cccc(N(CC(=O)Nc2ccc(Br)cc2)S(C)(=O)=O)c1 | 3.17
65 | Cc1ccc(C2CC(=O)N3C(=C2C#N)SCC3(O)c2ccc(C)cc2)cc1 (stereo not shown) | 1.64
66 | COc1ccc(C(=O)Nc2cccnc2)cc1 | -3.69
67 | COc1ccc(C(=O)Nc2ccc(S(=O)(=O)N3CCCCCC3)cc2)cc1Br | -1.24
68 | CCn1cc(C(=O)N2CC=C(c3ccccc3)CC2)c(=O)c2ccc(C)nc21 | 1.76
69 | COc1ccccc1CNC(=O)C1COc2ccccc2O1 (stereo not shown) | -1.41
70 | CCCCOc1ccc(C2c3c(-c4ccccc4O)n[nH]c3C(=O)N2CCO)cc1 (stereo not shown) | -1.35
71 | Cc1ccc(C(=O)Nc2ccc(Br)cc2)cc1 | 4.6
72 | CCc1nn(C(C)C(=O)NCc2cccc(Cl)c2)c(=O)c2cc3occc3n12 (stereo not shown) | 4.55
73 | N#Cc1cn(CC(=O)N2CCCC2)c2ccccc12 | 0.777
74 | CCc1ccccc1N1C(=O)C2CC(C)=C(C)CC2C1=O (stereo not shown) | -2.48
75 | CC1CCc2c(sc3ncn(Cc4ccccc4Cl)c(=O)c23)C1 (stereo not shown) | -3.41

Row | SMILES | % Inhibition @ 10 uM [%]
76 | CCOC(=O)C1CCCN(c2cc(C)c3cccc(SC)c3n2)C1 (stereo not shown) | -4.75
77 | CCc1nnc(NC(=O)c2nc(SC(C)C)ncc2Cl)s1 | 2.41
78 | CC1CCCCN1S(=O)(=O)c1ccc(Cl)cc1 (stereo not shown) | 2.26
79 | Cc1ccc(CNCCSc2nnnn2-c2ccccc2)cc1 | -4.91
80 | O=c1/c(=C/c2cn[nH]c2-c2ccc(Cl)cc2)sc2nc3ccccc3n12 | -7.56
81 | COc1ccc(-c2nn3c(-c4ccncc4)nnc3c3ccccc23)cc1 | -1.35
82 | COc1ccc(NC(=O)CN(c2ccc(F)cc2)S(C)(=O)=O)cc1Cl | -5.7
83 | COc1ccc(NC(=O)CCC(=O)c2ccc(-c3ccccc3)cc2)cc1 | 3.53
84 | Cc1ccc(Cn2nnc3c(O)nc(C4CCN(C(=O)CC(C)(C)C)CC4)nc32)cc1 | -1.82
85 | O=C(Nc1nccs1)C1CCCN1S(=O)(=O)c1ccc(F)cc1 (stereo not shown) | -2.09
86 | COc1ccc(N2C(=O)CCC(C(=O)c3ccccc3)=C2C)cc1 | 0.847
87 | CCc1ccc(-n2c(C)cc(/C=C3/C(=N)N4C(=NC3=O)SN=C4S(C)(=O)=O)c2C)cc1 | -3.39
88 | CCCCNCC(O)Cn1c(=O)sc2ccccc21 (stereo not shown) | 0.829
89 | Cc1ccc(S(=O)(=O)NC(=O)c2ccccc2)cc1C(C)C | 4.41
90 | COc1ccc(N2CCN(Cc3ccc(N(C)C)cc3)CC2)cc1 | 2.33
91 | Cc1ccc2oc(=O)c3cc(C(=O)N4CCC(C)CC4)sc3c2c1 | 0.809
92 | CC1CCCN(Cc2nc3c(c(=O)n(C)c(=O)n3C)n2Cc2cccc3ccccc23)C1 (stereo not shown) | 1.23
93 | Cc1nn(CC(=O)NCc2ccc3c(c2)OCO3)c(=O)c2cc3sccc3n12 | -1.58
94 | O=C1CCCN1c1ccc(S(=O)(=O)NCc2ccccc2)cc1 | 3.32
95 | O=C(c1ccc(C#CC2(O)CCCCC2)cc1)N1CCN(c2cccc(Cl)c2)CC1 | 5.2
96 | O=C1c2cccnc2C(=O)N1Cc1ccc(F)cc1S(=O)(=O)NC1CCCc2ccccc21 (stereo not shown) | -3.29
97 | Cc1ccc(NC(=O)c2ccccc2[N+](=O)[O-])c(C)c1 | -2.54
98 | N=C(NOC(=O)N1CCOCC1)c1ccccc1 | 3.59
99 | O=C(Cn1c(=O)n(Cc2ccccn2)c(=O)c2sc3ccccc3c21)c1ccc(F)cc1 | 2.04
100 | O=C(NCCC1=CCCCC1)c1cccnc1S | 32.2
